Measurements published in ChEMBL document CHEMBL4888484, “Replenishing the malaria drug discovery pipeline: Screening and hit evaluation of the MMV Hit Generation Library 1 (HGL1) against asexual blood stage Plasmodium falciparum ,using a nano luciferase reporter read-out” (2022).
About 540 (0.36%) of roughly 150,000 compounds showed an effect of 50% or more. Some of the results follow.

System: Plasmodium falciparum
Assay: Primary screen in NF54 nanoGlo assay, in single point, at 2uM, 72h; a lower Z score goes with more inhibition
Assay type: functional, Erythrocyte
Conditions: timepoint 72 hour

Row | Structure (SMILES) | % Inhibition [%] | Z score
1 | CCCCOC1CC(NCC(=O)N2CCCCCC2)C1(C)C (stereo not drawn) | -6 | 0.58
2 | O=C(c1ccc2c(c1)CN(C(=O)c1ccsc1)CCO2)N1CCOCC1 | -5 | 0.69
3 | CC(C)(CNC(=O)N[C@H]1C[C@H]1C(F)F)c1ccc2ccccc2c1 | 17 | -2.26
4 | COc1ccc(CN(C(=O)c2cccnc2)C2CC2)c(OC)c1 | -8 | 0.7
5 | Cc1nsc(C(=O)NCCOC[C@H]2CCOC2)c1N | -3 | 0.7
6 | Cn1c(=O)c2c(ncn2CC(=O)N2CCN(Cc3ccc(Cl)s3)CC2)n(C)c1=O | -9 | 0.72
7 | Cc1ccc(C(N)=O)c(N2CCC(n3cc(Cc4ccccc4)nn3)CC2)n1 | 10 | -1.33
8 | CC(C)OC[C@H]1CN(c2nc(-c3cccnc3)cs2)CCO1 | 2 | -0.29
9 | COc1ccc(NC(=O)c2ccc(F)cc2F)cc1N1CCCN(Cc2cccc(Cl)c2)C1=O | 4 | -0.85
10 | Cc1ccccc1C1CN(CC(C)C)CC1CN(C(=O)c1ccc(F)cc1)C1CCCCC1 (stereo not drawn) | -11 | 1.95
11 | CCc1nsc(NC(C)C(C)C(=O)Nc2ncccc2O)n1 (stereo not drawn) | -2 | 0.21
12 | COc1nc(C)cc(C)c1CNC(=O)Cc1c[nH]c(=O)n(C)c1=O | 1 | -0.21
13 | NC(=O)CCNC(=O)[C@@H]1Cc2cc(Br)ccc2O1 | -22 | 2.19
14 | Cc1snnc1C(=O)N1CCN(Cc2ccccc2)CC1 | -8 | 1.29
15 | COc1cccc(OCc2nc(C(=O)N3CCCCO3)co2)c1 | -10 | 1.81
16 | CC(C)(C)c1noc(-c2ccc(C(N)=O)[nH]2)n1 | -6 | 0.55
17 | c1ccc(-c2ncn3c2-c2ccccc2C3)cc1 | 6 | -0.8
18 | CNC(=O)c1cc(C)ccc1NCc1nnc2n1CCOC2 | -9 | 1.74
19 | Cc1cc(C(=O)N[C@H]2CCN(c3nc4ccccc4o3)C[C@@H]2O)no1 | -6 | 0.88
20 | CCCc1cc(N2CCN(c3cccc(Cl)c3)CC2)n2cnnc2n1 | -2 | 0.2
21 | O=C(NCc1ccccn1)c1cccc(S(=O)(=O)N2CCCCC2)c1 | -11 | 1.69

Row | Structure (SMILES) | % Inhibition [%] | Z score
22 | CCCC(CNC(=O)C1(C)CC1(F)F)C(=O)O (stereo not drawn) | 6 | -1.07
23 | CCC(NC(=O)C1CC(O)CN1)c1nc(C)cs1 (stereo not drawn) | -4 | 0.44
24 | CCN(CC)Cc1ncnn1-c1ccc(F)c(F)c1 | 5 | -0.82
25 | CCOC1CC(NC(=O)C2COC(C)C2)C1Oc1ccccc1 (stereo not drawn) | -1 | 0.07
26 | C[C@@](CO)(CNCc1cnc(N2CCOCC2)nc1)c1ccccc1 | -10 | 1.27
27 | CN(Cc1ccc(-n2ccnc2)cc1)Cc1n[nH]c2c1CCC2 | 2 | -0.41
28 | Cc1ccccc1NC(=O)c1cc(S(=O)(=O)N2CCCCCC2)cn1C | -13 | 1.81
29 | CS(=O)(=O)c1ccc(CN2CC[C@H](c3nc4ccccc4[nH]3)C2)cc1 | -10 | 1.29
30 | COCCN(C(=O)c1cnn(-c2ncc3c(n2)-c2ccccc2CCC3)c1C)C(C)C | -6 | 1.22
31 | COc1ccccc1-n1c(=O)n(C2CC2)c(=O)c2c1ncn2CC1CC1 | -4 | 0.57
32 | Cn1cccc1C(=O)NC1CCC(F)C1 (stereo not drawn) | 10 | -1.22
33 | COc1ccc([C@@H]2C[C@H](NC(C)=O)C[C@H](CC(C)C)O2)c(OC)c1OC | 1 | -0.17
34 | O=C(NCCc1ccccc1)N1C[C@@H]2CCCN2c2ccccc21 | 0 | -0.01
35 | CCN(CC)[C@@H](C(=O)NCC(=O)NC(C)(C)C)c1cc(Cl)cc(Cl)c1 | -20 | 3.11
36 | CC1(C)C[C@@H]2C[C@@](C)(CN2C(=O)c2coc(CN3CCN(Cc4ccccc4)CC3)n2)C1 | -9 | 1.58
37 | Cc1nc(C)n(CC2CCCCN2C2CC(C)OC2=O)n1 (stereo not drawn) | -13 | 1.51
38 | CCOC1CCCN(C(=O)NCC2CCCC(C)C2)C1 (stereo not drawn) | -18 | 2.46
39 | CCn1nnc(C)c1CN1CCC(=O)N(C)c2cc(F)ccc21 | 2 | -0.34
40 | CC(=O)N1CCCN(C(=O)c2n[nH]c(=O)c3ccccc23)CC1 | -7 | 1.33
41 | CS(=O)(=O)N[C@@H](c1ccsc1)c1cccs1 | -9 | 1.59
42 | O=C(O)[C@H]1CCCCN1C(=O)CCc1cc(Cl)cs1 | 0 | 0.02

Row | Structure (SMILES) | % Inhibition [%] | Z score
43 | O=C(NC1CCCC1)C1CCN(c2ccc(-c3cccs3)nn2)CC1 | -2 | 0.47
44 | COc1ccc([C@@H]2CCCN2C(=O)CCC(=O)c2cc(C)ccc2C)cc1OC | 18 | -2.34
45 | C#CCCCCC(=O)Nc1n[nH]c(OC)n1 | -7 | 1.07
46 | O=C1C[C@@H](C(=O)Nc2ccccc2)NC(N2CCCCC2)=N1 | -5 | 0.85
47 | CN(C)S(=O)(=O)N1CCC[C@H](CNC(=O)c2ccco2)C1 | -2 | 0.42
48 | COc1cc(Cl)ccc1C(=O)N(C)Cc1c[nH]nc1C | -17 | 2.12
49 | CC1CCN(S(=O)(=O)c2cccn(CC(=O)Nc3ccc(Cl)cc3F)c2=O)CC1 | -16 | 1.83
50 | CCOC1CC(N(C)C(=O)NCc2ccc3c(c2)COC3)C12CCC2 (stereo not drawn) | 5 | -0.66
51 | CCOc1ccc(NC(=O)CC2(CC3=Nc4ccccc4S(=O)(=O)N3)CCCC2)cc1 | -6 | 0.74
52 | Cc1c(NC(C)C(C)C)cccc1C(=O)N1CCC[C@H]1C(N)=O (stereo partly drawn) | -4 | 0.8
53 | CCCn1c(C)nn(-c2cc(N(S(C)(=O)=O)S(C)(=O)=O)c(Cl)cc2Cl)c1=O | 2 | -0.35
54 | COCCc1ccnc(NC(=O)[C@H]2CCN(C)[C@@H](C)C2)c1 | -1 | 0.12
55 | O=C(NC[C@]1(O)CCCNC1)c1cccc(-c2nccc3ccccc23)c1 | -10 | 1.2
56 | C[C@H]1CS(=O)(=O)N(c2ccc(C(=O)Nc3ccc(C(C)(C)C)cc3)c(Cl)c2)C1=O | -8 | 1.04
57 | CCC(C(=O)N1C2CCC1CC(n1cccn1)C2)c1ccccc1 (stereo not drawn) | -12 | 1.56
58 | CCCc1nc(C(=O)N(Cc2ccncc2)C[C@@H]2CCC(=O)N2)cs1 | 10 | -1.89
59 | CCc1nncn1[C@H]1CCN(S(=O)(=O)c2c(C)nn(C)c2C)C1 | -9 | 1.57
60 | Cc1noc(C)c1-c1cc(-c2ccc(Cl)cc2)nc(N2CC[C@H](N)C2)n1 | -3 | 0.63
61 | COc1ccccc1C(=O)Nc1cc(-c2nccn2C)nn1C | -10 | 1.48
62 | Cc1nc(-c2ccccc2)ncc1C(=O)N1CCC(N2CCC(O)CC2)CC1 | -5 | 0.79
63 | c1ccc(NCCc2nc3ccccc3[nH]2)nc1 | 4 | -0.53

Row | Structure (SMILES) | % Inhibition [%] | Z score
64 | CCc1nn(C)c(Cl)c1CN(C)CCN1CCCCC1=O | 3 | -0.48
65 | Cc1ccccc1N1CCN(C(=O)CCN2C(=O)c3ccccc3C2=O)CC1 | -12 | 2.19
66 | Cc1ncsc1C(=O)NCCN[C@@H](C)c1cccc(C#N)c1 | 13 | -2.28
67 | O=C(Nc1c2c(nn1-c1cccc(Cl)c1)CS(=O)(=O)C2)c1cccc2ccccc12 | -12 | 2.1
68 | Cc1ccc(CN2CCOCCNC(=O)[C@H]3CCCC[C@H]32)o1 | 3 | -0.55
69 | Cc1ccc(C(=O)N2CCS(=O)(=O)C[C@H]2C2CC2)c(Cl)c1 | -7 | 1.1
70 | CN(CC(=O)N(CCn1ccc(C(F)(F)F)n1)C1CCCC1)S(C)(=O)=O | -1 | 0.15
71 | CCC(C)(C)NC(=O)c1ccc(F)cc1 | -3 | 0.64
72 | O=C1CC(c2ccccc2)N2N=C(N3C(=O)C4CC=CCC4C3=O)NC2=N1 (stereo not drawn) | 32 | -4.28
73 | CN(C)[C@@H]1CN(C(=O)CC2CCCCC2)CC[C@@H]1CO | -8 | 1.04
74 | COC1(OC)CCOC[C@@H]1NC(=O)Nc1ccccc1C(F)(F)F | -2 | 0.27
75 | COc1ccc(-n2c(=O)c3c(C)n(Cc4ccccc4)c(=O)cc3n2Cc2ccccc2)cc1 | -3 | 0.38
76 | CN(C(=O)c1cc(-c2ccc(F)cc2)[nH]n1)C(C1CC1)C1CC1 | -14 | 1.48
77 | COCc1ccc(C(=O)N[C@@H](C)c2nc(C3CC3)no2)o1 | -13 | 2.2
78 | Cc1cccc(-c2nc(-c3cccc(C(=O)NCCN4CCCC4=O)c3)n[nH]2)c1 | 8 | -1.09
79 | COCc1cc(=O)n(CC(=O)Nc2ccc(C(F)(F)F)cc2)c(N2CCCC2)n1 | -8 | 1.25
80 | CCc1csc(CNC(=O)[C@H]2CCS(=O)(=O)C2)n1 | -11 | 1.05
81 | O=C1C[C@H](c2ccc(O)c(Cl)c2)c2cnn(Cc3cccs3)c2N1 | -7 | 0.88
82 | CC(C)c1noc([C@H](C)N(C)CC(=O)NC(C)(C)C)n1 | -12 | 1.95
83 | Cc1noc(C)c1S(=O)(=O)N[C@@H](C)C(=O)NC1CCCCCC1 | -9 | 1.29
84 | Cc1c(CNCc2cccc(Br)c2)c(C(=O)O)c(C)n1-c1ccccc1 | -8 | 1.49
